The values that follow come from article PMC4336329 (PLoS ONE, 2015).

Each structure is given as a SMILES string. Screen size: about 310,000 compounds; about 14,000 (4.5%) showed an effect of 50% or more. Effects have a minus sign here. This is one part of the list.
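Also: peak tail current of the secondary pulse compared with the same well before compound.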

The target of the assay is human ether-à-go-go-related gene (hERG) potassium channel (human, UniProt Q12809). Kind of assay: primary screen, population patch clamp on CHO cells stably expressing hERG.
Sequence of human ether-à-go-go-related gene (hERG) potassium channel (Q12809 whole entry, looked up): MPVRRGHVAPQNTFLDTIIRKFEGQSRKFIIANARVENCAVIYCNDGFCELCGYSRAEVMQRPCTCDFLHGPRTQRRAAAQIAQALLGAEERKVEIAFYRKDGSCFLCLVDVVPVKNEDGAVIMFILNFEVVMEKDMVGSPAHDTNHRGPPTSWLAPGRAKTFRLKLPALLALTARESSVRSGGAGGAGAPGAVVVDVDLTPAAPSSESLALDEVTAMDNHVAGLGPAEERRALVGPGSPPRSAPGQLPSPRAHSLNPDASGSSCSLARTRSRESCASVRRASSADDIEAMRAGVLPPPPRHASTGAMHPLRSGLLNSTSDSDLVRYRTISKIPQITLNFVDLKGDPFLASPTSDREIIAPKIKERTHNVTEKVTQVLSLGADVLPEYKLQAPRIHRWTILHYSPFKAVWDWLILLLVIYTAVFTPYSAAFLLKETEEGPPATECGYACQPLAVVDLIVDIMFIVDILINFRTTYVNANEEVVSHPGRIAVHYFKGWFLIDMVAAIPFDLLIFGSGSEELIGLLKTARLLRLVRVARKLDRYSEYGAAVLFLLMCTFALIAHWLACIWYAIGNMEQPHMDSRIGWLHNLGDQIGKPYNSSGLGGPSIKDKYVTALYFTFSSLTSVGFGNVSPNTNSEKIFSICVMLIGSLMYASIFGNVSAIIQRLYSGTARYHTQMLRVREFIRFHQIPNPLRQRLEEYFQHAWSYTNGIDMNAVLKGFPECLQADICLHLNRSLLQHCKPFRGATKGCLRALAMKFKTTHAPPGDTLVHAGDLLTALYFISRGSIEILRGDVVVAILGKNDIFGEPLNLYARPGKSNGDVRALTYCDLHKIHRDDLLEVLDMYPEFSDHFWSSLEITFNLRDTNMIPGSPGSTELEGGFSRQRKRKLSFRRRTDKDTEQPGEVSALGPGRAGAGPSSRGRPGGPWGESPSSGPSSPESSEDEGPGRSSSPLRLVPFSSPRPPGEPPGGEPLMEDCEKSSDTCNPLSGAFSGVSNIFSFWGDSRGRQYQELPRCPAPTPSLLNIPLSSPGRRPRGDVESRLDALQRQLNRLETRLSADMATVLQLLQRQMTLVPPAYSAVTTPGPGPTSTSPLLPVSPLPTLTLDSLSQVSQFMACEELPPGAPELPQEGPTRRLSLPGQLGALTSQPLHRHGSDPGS
With `Fc1ccc(NC(=S)Nc2ccccc2Cl)cc1`, the “hERG current change (%, negative = inhibition) at 10uM” value is on record as -4.83%.

Regarding `CCOC(=O)c1sc(N(C)C(C)=O)nc1C`, the “hERG current change (%, negative = inhibition) at 10uM” value was 15.9%.

Regarding `Cc1ccc(/C=C2\SC(=S)N(CCC(=O)N3CCCCC3)C2=O)cc1`, the “hERG current change (%, negative = inhibition) at 10uM” value came out at 14.2%.

On to `C[C@H](NC(=O)OC(C)(C)C)c1nnc(SCC(=O)Nc2cccc(Cl)c2)o1`, for which the “hERG current change (%, negative = inhibition) at 10uM” value is -16.1%.

With `CCC(C)C(NC(=O)C1CCC(C)CC1)C(=O)Nc1ccc(OC)cc1OC` (stereo not shown), the “hERG current change (%, negative = inhibition) at 10uM” value is -4.26%.

Regarding `O=C(OCC(=O)c1cccs1)c1ccc(NC(=O)c2ccco2)cc1`, the “hERG current change (%, negative = inhibition) at 10uM” value was -2.14%.

Take `O=C(N1CCN(c2ccccn2)CC1)N1c2ccccc2Sc2ccccc21`: the “hERG current change (%, negative = inhibition) at 10uM” value is on record as 11.1%.

Regarding `CCC(CC)C(=O)OCC(=O)Nc1ccc(S(=O)(=O)N2CCOCC2)cc1OC`, the “hERG current change (%, negative = inhibition) at 10uM” value is listed as -42.1%.

As for `CC(C)C(=O)Nc1ccc(NC(=O)c2ccc([N+](=O)[O-])cc2Cl)cc1`, the “hERG current change (%, negative = inhibition) at 10uM” value stood at 5.02%.

As to `COC(=O)c1ccncc1C(=O)Nc1ccc(OC)cc1`, the “hERG current change (%, negative = inhibition) at 10uM” value is 0.284%.

On to `Brc1ccc2c(c1)C(c1cccs1)=NNC(c1cccnc1)=N2`, for which the “hERG current change (%, negative = inhibition) at 10uM” value was -14.5%.

With `Cn1c(Br)nc2c1c(=O)n(Cc1ccccc1)c(=O)n2C`, the “hERG current change (%, negative = inhibition) at 10uM” value is recorded as -10.2%.

Turning to `CC1(C)Cc2c(cnn2-c2ccc(F)cc2)C(NC(=O)Cn2cncn2)C1` (stereo not shown), the “hERG current change (%, negative = inhibition) at 10uM” value is 7.61%.

For the compound `O=C(O)c1ccc2c(=O)n3c(nc2c1)/C(=C/c1ccccc1OC(F)F)CC3`, the “hERG current change (%, negative = inhibition) at 10uM” value came out at 19%.

As to `CCOC(=O)c1c(S(=O)(=O)Nc2ccc(C)c(F)c2)c(C)n(C)c1C`, the “hERG current change (%, negative = inhibition) at 10uM” value is -2.76%.

On to `CCOc1ccccc1CNc1ncnc2ccc(-c3c(C)noc3C)cc12`, for which the “hERG current change (%, negative = inhibition) at 10uM” value is on record as -5.04%.

`CCn1nc(NC(=O)C(C)C)c2cc3ccc(C)cc3nc21`: the “hERG current change (%, negative = inhibition) at 10uM” value was -0.435%.

As to `CC(C)(C)c1nn(-c2ccccc2)c2nc(Cl)c(C=O)cc12`, the “hERG current change (%, negative = inhibition) at 10uM” value was determined as 17.8%.

`COC(=O)c1cc(C(O)(C(=O)OC)C(F)(F)F)c(/N=C/N(C)C)s1` (stereo not shown): the “hERG current change (%, negative = inhibition) at 10uM” value is 7.12%.

Take `C=CCN=c1scc(C)n1/N=C/c1ccc(O)c(O)c1`: the “hERG current change (%, negative = inhibition) at 10uM” value amounted to 17.7%.

Turning to `CC1CCN(C(=O)CSc2nnc(-c3ccc(S(=O)(=O)N4CCOCC4)cc3)n2C)CC1`, the “hERG current change (%, negative = inhibition) at 10uM” value is recorded as -4.38%.

As to `N#Cc1ccc(COn2nnc3ccccc32)cc1`, the “hERG current change (%, negative = inhibition) at 10uM” value is -11.1%.

On to `Clc1ccccc1OCc1nnc(-c2ccccc2)o1`, for which the “hERG current change (%, negative = inhibition) at 10uM” value was 19.9%.

On to `COc1ccccc1NC(=S)N1CCCCCC1`, for which the “hERG current change (%, negative = inhibition) at 10uM” value came out at 7.14%.

With `O=C1CN(C(=O)/C=C/c2ccc(Br)cc2)CCN1`, the “hERG current change (%, negative = inhibition) at 10uM” value stood at 1.28%.

`CCCCOC(=O)c1ccc(N/C(=N\S(=O)(=O)c2ccccc2)c2ccccc2)cc1`: the “hERG current change (%, negative = inhibition) at 10uM” value is -3.41%.

As for `Cn1c(Cn2nnc3ccccc32)nnc1SCC(=O)N1c2ccccc2CCc2ccccc21`, the “hERG current change (%, negative = inhibition) at 10uM” value is on record as -23.6%.

As to `COc1ncccc1-c1nnn(-c2ccccc2)n1`, the “hERG current change (%, negative = inhibition) at 10uM” value came out at 7.2%.

Consider `C[N+](C)(C)CC(=O)O.[Cl-]`, for which the “hERG current change (%, negative = inhibition) at 10uM” value is 0.583%.

Take `Cc1ccc(NC2CCCN(C(=O)C3CCCCC3)C2)cc1C` (stereo not shown): the “hERG current change (%, negative = inhibition) at 10uM” value stood at 3.03%.

On to `COC(=O)CCN(c1ccccc1)S(=O)(=O)c1cc(-c2cc(C)no2)ccc1OC`, for which the “hERG current change (%, negative = inhibition) at 10uM” value is -25.4%.

Regarding `CC(NC(=O)CN(C)Cc1ccc(Br)cc1)c1ccccc1` (stereo not shown), the “hERG current change (%, negative = inhibition) at 10uM” value was -19.3%.

With `CCCNC(=O)CCn1cc(-c2ccc(OC)cc2)nc1CCN`, the “hERG current change (%, negative = inhibition) at 10uM” value is reported as 12.6%.

Turning to `N#C/C(=C/c1ccc(O)c(O)c1)C(=O)NCc1ccc(Cl)cc1`, the “hERG current change (%, negative = inhibition) at 10uM” value is on record as -6.5%.

For the compound `c1cn(-c2ccc(-c3ccnc4ncnn34)cc2)cn1`, the “hERG current change (%, negative = inhibition) at 10uM” value is on record as -27.2%.

As for `COc1ccc(S(=O)(=O)Nc2ccc(CC#N)cc2)cc1`, the “hERG current change (%, negative = inhibition) at 10uM” value worked out at 14.9%.

For the compound `Cc1cc2c(c(SCC(=O)NCc3ccc(Cl)cc3)n1)C(=O)OC2`, the “hERG current change (%, negative = inhibition) at 10uM” value came to 13.7%.

For the compound `COC(=O)c1ccc(C2C(C#N)=C(C)NC3=C2C(=O)CC(C)(C)C3)cc1` (stereo not shown), the “hERG current change (%, negative = inhibition) at 10uM” value was 2.72%.

As for `CCOc1ccc2nc(NS(=O)(=O)c3ccc(NC(C)=O)cc3)sc2c1`, the “hERG current change (%, negative = inhibition) at 10uM” value is on record as -8.55%.

As to `CCc1ccccc1NC(=O)[C@@H]1CCC(=O)N1C1OC(=O)c2c1ccc(OC)c2OC` (stereo partly shown), the “hERG current change (%, negative = inhibition) at 10uM” value is 1.29%.

With `Cc1ccc(C)c(-c2ccc(=O)n(Cc3cccc(Br)c3)n2)c1`, the “hERG current change (%, negative = inhibition) at 10uM” value was 10.7%.

Consider `CCOC(=O)NC(Nc1nnc(SCC)s1)(C(F)(F)F)C(F)(F)F`, for which the “hERG current change (%, negative = inhibition) at 10uM” value stood at 20%.

Turning to `Cc1ccc(C(=O)CSC2=C(C#N)C(c3ccco3)CC(=O)N2)c(C)c1` (stereo not shown), the “hERG current change (%, negative = inhibition) at 10uM” value was -43.6%.

Regarding `O=C(NNC(=O)c1n[nH]c(=O)c2ccccc12)c1ccc(Br)cc1`, the “hERG current change (%, negative = inhibition) at 10uM” value is -14.1%.

In the case of `CC(C)CCNC(=O)c1ccc(CS(=O)(=O)Cc2ccccc2F)o1`, the “hERG current change (%, negative = inhibition) at 10uM” value was -10.5%.

`O=C(NN1C(=O)NC2(CCCCC2)C1=O)c1ccc(-c2ccc(Cl)cc2)o1`: the “hERG current change (%, negative = inhibition) at 10uM” value is reported as -27.2%.
